This note sets out measurements from the RNAGym collection of RNA variant scans (doi:10.1101/gad.245936.114).

Variants at the floor of the assay are shown more often than the library holds them.

B1: tRNA (parent)
chain: CUCUCGGUAGCCAAGUUGGUUUAAGGCGCAAGACUUUAAUUUAUCACUACGAAAUCUUGAGAUCGGGCGUUCGACUCGCCCCCGGGAGAUUUUUUCCUCGAGCAA

In the data set the parent is B1. Put plainly: nonsense suppression (GFP-seq) (ratio to wild type); higher = more function; SUP4oc tRNA, yeast GFP reporter sort-seq. A digest of the protocol:
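Raffinose/galactose medium with 80 mg/L adenine was used to grow yeast carrying genome-integrated tRNA variants (~3% random-mutation library), RFP, and a galactose-driven GFP ochre reporter. Cells went into GFP/RFP bins, which were Illumina-sequenced, and variants with ≥100 reads and ≥30 cells were scored. Nonsense suppression (GFPSEQ) is the per-bin median GFP/RFP weighted by estimated cell share and expressed relative to the unmutated parent tRNA.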
Take U17C U21C G78A: the nonsense suppression is at most 0.026.
In the case of C1G U21A, the nonsense suppression is at most 0.026.
The same measure for A9C U71A: at most 0.026; for U4A C34A A62G C83G: at most 0.026; for G10A G15A G85C: at most 0.026.
The result for A31G A33G reads at most 0.026.
The same measure for A54G G61A U76C C77U: at most 0.026; for A13C G84C: 0.0388.
Regarding G19U A33C C56A U57C C64A C75A, the nonsense suppression is at most 0.026.
Turning to C1U U22C A74U, the nonsense suppression is at most 0.026.
The result for G59A G66C U76C reads at most 0.026.
As for U22G U57G G69U, the nonsense suppression is at most 0.026.
The same measure for A14C G19A G28C G61U G66A G88A: at most 0.026; for C12G C27U C75A: at most 0.026.
The same measure for U8A C81A: at most 0.026; for G10A U17A G26C G69A C83A: at most 0.026.
The result for G10U U57C G73A G84U reads at most 0.026; that for C1U A13G U63C, at most 0.026; that for A9G U21A U55C G69C C77G G78U, at most 0.026.
As for G61U C77U, the nonsense suppression was at most 0.026.
The result for G7U A9C U70C G73U reads at most 0.026; that for C29G A62C, at most 0.026.
The result for G25A U71G A74U G78C reads at most 0.026; that for G61U C80G, at most 0.026; that for C27G C56A C79A C83A, at most 0.026.
The result for C56G U58A G78C C80U reads at most 0.026; that for U22G U55G, at most 0.026; that for C1G G7A G15A A89G, at most 0.026.
For the variant G6C C11U U55G, the nonsense suppression was at most 0.026.
U8C A60G C77G: the nonsense suppression was at most 0.026.
The result for U4G U71C reads at most 0.026; that for G73A C77G, at most 0.026.
The result for G66C C77A C79G reads at most 0.026; that for A14G U57G G78C, at most 0.026; that for A14G U20A U22C G66A, at most 0.026.
The same measure for U8C A14G A60C: at most 0.026; for G10U C11U G15A C68G U71C: at most 0.026; for G28U U58C C83A: at most 0.026.
On to U4G G85C, for which the nonsense suppression was 0.813.
The same measure for C3G A89C: at most 0.026; for U2A C68U: 0.18.
For A23U G25A G32U U70A G73C, the nonsense suppression was at most 0.026.
The result for U16G U17C U76G reads at most 0.026.
As to C34A C64A, the nonsense suppression was at most 0.026.
The same measure for C3G A24G: at most 0.026; for G7C A31C G32C: at most 0.026.
The result for U4C U17A G61C reads at most 0.026; that for G59A A62U, at most 0.026.
The result for G7C U20G G67A reads at most 0.026; that for U4C A24G C82G, at most 0.026.
For the variant C5A U21A C56A, the nonsense suppression was at most 0.026.
On to G26A U70A, for which the nonsense suppression was at most 0.026.
The result for A24C G69U G78C reads at most 0.026.
The result for A24U G85U reads 0.0597; that for U55A C80U, at most 0.026.
The result for A13G G25A G26C reads at most 0.026; that for C12G A14G G32U U55C G85A G86A, at most 0.026.
Take G15U G88C: the nonsense suppression is at most 0.026.
Regarding G67C, the nonsense suppression was at most 0.026.
The result for G67A reads 0.188; that for C5G C27U A60C C80A, at most 0.026.
As to G28A G67C U76G, the nonsense suppression was at most 0.026.
The same measure for C56A C79A: at most 0.026.
The same measure for A33G A54U U71G: at most 0.026; for C64A G66C C79A: at most 0.026.
On to G6C G88U, for which the nonsense suppression is at most 0.026.
Consider U63A G86U, for which the nonsense suppression was 0.0573.
The result for U20A U58A G67C A89U reads at most 0.026; that for A31U C68U U70A G85U, at most 0.026; that for C64U U70G, at most 0.026.
Regarding C1U U58C, the nonsense suppression was at most 0.026.
Take U17A G18U: the nonsense suppression is at most 0.026.
The result for U4C G15C C27U A30U reads at most 0.026.
Consider U35G C68G, for which the nonsense suppression was at most 0.026.
In the case of G18U G69A, the nonsense suppression was at most 0.026.
The result for U4G A24C reads 0.134; that for A60G U63G, at most 0.026; that for C5G G69U A74U C81G, at most 0.026.
The same measure for A31U C68U: at most 0.026.
The same measure for C5A A31C: at most 0.026.
Regarding G10C U71A, the nonsense suppression was at most 0.026.
The same measure for G19U U57G G86U: at most 0.026.
Take G7C U17C A74G: the nonsense suppression was at most 0.026.
The result for G28A U57A G69C reads at most 0.026; that for G26C U57C C68A G73C, at most 0.026; that for A9U A13C G59C, at most 0.026.
Consider C34A U35A A62G, for which the nonsense suppression was at most 0.026.
As to U8G G69C, the nonsense suppression is at most 0.026.
The same measure for G6U U55G: at most 0.026.
The same measure for U17G G73C G85U A89G: at most 0.026; for U8G G32A U70A C79U: at most 0.026.
The result for G6U G7U U8A G15C A24C U57G reads at most 0.026.
With G7U U16G G85U, the nonsense suppression was at most 0.026.
The same measure for C29U U57A G61C: at most 0.026; for U20G U21C G26C C56U C68A: at most 0.026; for C34A A60G: at most 0.026.
The same measure for C56U C64U C80G: at most 0.026; for G10A A60G: at most 0.026; for C56A C75A: at most 0.026.
The result for G7U U16G G18C reads at most 0.026.
As to G26C G73U G84U, the nonsense suppression was at most 0.026.
With G7C A14G C68A G78A, the nonsense suppression was at most 0.026.
Take A14U U17G C27U U55C: the nonsense suppression is at most 0.026.
The same measure for C29U G73U G88A: at most 0.026.
As for G6A G67A G73U, the nonsense suppression is at most 0.026.
The same measure for C3G U4A A23C A60C G69U: at most 0.026; for G28A A54U U55C: at most 0.026; for G19U U55G: at most 0.026.
The result for C1U G19C reads at most 0.026; that for U35G G59A U71C, at most 0.026.
The same measure for C27G A31G U70G: at most 0.026; for G7U G69U: at most 0.026; for U63C C72A: at most 0.026.
Take G10U A30C C56A U70G U76A: the nonsense suppression was at most 0.026.
The result for G32C C75A G86U reads at most 0.026; that for C3A U22C G26U C80A, at most 0.026.
The same measure for C1G A31G: at most 0.026.
The same measure for C72U G84C G85A: at most 0.026.
As to U63C G86A, the nonsense suppression is at most 0.026.
The result for U8C A31G C75U reads at most 0.026; that for G59C A62U, at most 0.026.
The result for C27A G69C reads at most 0.026; that for A23C U76A, at most 0.026.
The result for A74C A89U reads at most 0.026.
As to C1U G67C G78U, the nonsense suppression was at most 0.026.
The result for U16A A24C G65A U70G reads at most 0.026.
The same measure for U22G A33U C75A: at most 0.026; for A14G G67C: at most 0.026.
The result for G19U C34A A54U reads at most 0.026; that for G32C U70C U71G, at most 0.026; that for U22G G67A, at most 0.026.
Take A31G A74G: the nonsense suppression was at most 0.026.
In the case of G28C G65U, the nonsense suppression was at most 0.026.
The same measure for U4A C29A U71C G78U: at most 0.026; for C11A G26A U70A: at most 0.026; for C3A A13G G86U A87G: at most 0.026.
For the variant G6C A31G G59U, the nonsense suppression is at most 0.026.
The same measure for C3U U20G G26A U58G C75G: at most 0.026; for A60G: 1.14; for A23G U57C G61A C72U: at most 0.026.
Consider A23C U70G A89C, for which the nonsense suppression is at most 0.026.
Take G10C U76C: the nonsense suppression is at most 0.026.
The same measure for U4G U58G: at most 0.026.
Consider G10U G25C G59A G66C U76G, for which the nonsense suppression was at most 0.026.
The same measure for G10C A13G A14G G86U: at most 0.026; for C5U G28A U55C C75G: at most 0.026; for G10A U63G C77U G84C: at most 0.026.
The result for A23G G86U reads at most 0.026.
G6U G66A: the nonsense suppression is at most 0.026.
With C1U U2C A87C, the nonsense suppression was at most 0.026.
The same measure for A30G A74C: 0.0554; for C1G C5G A14G A30G U58G: at most 0.026.
The result for C3U U8G U58G C80A C82G G86C reads at most 0.026; that for A14U U21C A24C G26U A54U G78A, at most 0.026.
The same measure for G19A A24C: at most 0.026.
As for A30G C34A, the nonsense suppression is at most 0.026.
The same measure for A14C U71C G84A: at most 0.026.
The result for C3U C11U U57C A60C reads at most 0.026.
In the case of C3A A13G, the nonsense suppression is at most 0.026.
The result for C1A A74U reads at most 0.026.
The result for G66U C79G reads at most 0.026; that for U63A G84A, at most 0.026; that for U2A A14U U16G G25U G85C, at most 0.026.
The same measure for G7C A14U C29G U58A: at most 0.026; for C56U G69C C82G: at most 0.026.
As for A30G A62G, the nonsense suppression is at most 0.026.
For U16G G19C C68A, the nonsense suppression is at most 0.026.
